Data: paper PMC9411691, “Protein-Ligand Identification and In Vitro Inhibitory Effects of Cathine on 11 Major Human Drug Metabolizing Cytochrome P450s” (International Journal of Toxicology, 2022)
Structures can show the parent of a compound that is named as a salt.

Key:
CYP3A4 = CYP3A4 (Homo sapiens, UniProt P08684); assay: Vivid CYP450 fluorescence-based inhibition assay, CYP3A4
CYP2C9 = CYP2C9 (Homo sapiens, UniProt P11712); assay: Vivid CYP450 fluorescence-based inhibition assay, CYP2C9
CYP1A2 = target: T1, CYP1A2 (Homo sapiens, UniProt P05177); assay: Vivid CYP450 fluorescence-based inhibition assay, CYP1A2; conditions: IC50 shift criterion >2
T1 sequence (P05177 2-516 limits assumed): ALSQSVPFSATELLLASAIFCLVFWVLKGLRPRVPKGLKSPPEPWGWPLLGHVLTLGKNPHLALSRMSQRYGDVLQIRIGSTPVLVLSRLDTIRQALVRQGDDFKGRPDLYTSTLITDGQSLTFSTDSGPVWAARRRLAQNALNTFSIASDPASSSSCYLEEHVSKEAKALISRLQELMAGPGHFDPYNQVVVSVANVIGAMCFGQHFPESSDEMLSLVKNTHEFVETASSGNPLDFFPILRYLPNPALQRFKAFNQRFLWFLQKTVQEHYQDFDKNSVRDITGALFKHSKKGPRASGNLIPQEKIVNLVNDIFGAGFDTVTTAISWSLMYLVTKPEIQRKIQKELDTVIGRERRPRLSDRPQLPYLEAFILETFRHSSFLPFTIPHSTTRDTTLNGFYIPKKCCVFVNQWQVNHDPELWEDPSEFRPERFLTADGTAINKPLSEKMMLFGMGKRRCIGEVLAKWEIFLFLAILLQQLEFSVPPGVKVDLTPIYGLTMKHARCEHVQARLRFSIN

CYP2C8 = target: T2, CYP2C8 (Homo sapiens, UniProt P10632); assay: Vivid CYP450 fluorescence-based inhibition assay, CYP2C8
T2 sequence (P10632 1-490): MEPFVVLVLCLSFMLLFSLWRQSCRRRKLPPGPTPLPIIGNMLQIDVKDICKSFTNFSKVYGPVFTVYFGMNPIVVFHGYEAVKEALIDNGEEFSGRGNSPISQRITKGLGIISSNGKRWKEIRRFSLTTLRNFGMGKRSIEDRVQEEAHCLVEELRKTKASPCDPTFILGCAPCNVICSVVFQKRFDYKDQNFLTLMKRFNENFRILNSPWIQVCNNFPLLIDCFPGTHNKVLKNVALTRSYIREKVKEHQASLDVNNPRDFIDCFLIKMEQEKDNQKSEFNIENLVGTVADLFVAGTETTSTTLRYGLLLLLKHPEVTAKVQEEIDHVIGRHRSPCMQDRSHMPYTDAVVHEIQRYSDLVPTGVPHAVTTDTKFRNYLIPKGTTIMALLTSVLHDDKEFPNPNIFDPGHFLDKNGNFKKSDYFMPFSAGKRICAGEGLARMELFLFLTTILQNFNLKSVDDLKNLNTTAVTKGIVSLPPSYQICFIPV

CYP2D6 = CYP2D6 (Homo sapiens, UniProt P10635); assay: Vivid CYP450 fluorescence-based inhibition assay, CYP2D6; conditions: IC50 shift criterion >2
Sequence of UniProt P10635 (P10635 whole entry): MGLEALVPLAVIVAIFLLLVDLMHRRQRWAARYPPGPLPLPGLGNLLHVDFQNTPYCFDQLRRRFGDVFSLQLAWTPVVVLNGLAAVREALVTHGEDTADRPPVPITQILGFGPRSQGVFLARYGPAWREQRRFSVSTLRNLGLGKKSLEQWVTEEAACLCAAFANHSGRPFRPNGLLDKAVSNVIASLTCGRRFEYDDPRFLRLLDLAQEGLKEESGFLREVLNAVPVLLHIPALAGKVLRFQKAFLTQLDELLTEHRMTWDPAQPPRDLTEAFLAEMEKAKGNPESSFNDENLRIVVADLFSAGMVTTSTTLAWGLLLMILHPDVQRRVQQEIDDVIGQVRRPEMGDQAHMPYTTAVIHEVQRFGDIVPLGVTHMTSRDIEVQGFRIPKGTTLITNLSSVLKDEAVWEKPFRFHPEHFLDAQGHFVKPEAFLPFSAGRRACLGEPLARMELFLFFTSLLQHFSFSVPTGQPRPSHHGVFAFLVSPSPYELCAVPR

CYP2B6 = target: T3, CYP2B6 (Homo sapiens, UniProt P20813); assay: Vivid CYP450 fluorescence-based inhibition assay, CYP2B6
T3 sequence (P20813 1-491): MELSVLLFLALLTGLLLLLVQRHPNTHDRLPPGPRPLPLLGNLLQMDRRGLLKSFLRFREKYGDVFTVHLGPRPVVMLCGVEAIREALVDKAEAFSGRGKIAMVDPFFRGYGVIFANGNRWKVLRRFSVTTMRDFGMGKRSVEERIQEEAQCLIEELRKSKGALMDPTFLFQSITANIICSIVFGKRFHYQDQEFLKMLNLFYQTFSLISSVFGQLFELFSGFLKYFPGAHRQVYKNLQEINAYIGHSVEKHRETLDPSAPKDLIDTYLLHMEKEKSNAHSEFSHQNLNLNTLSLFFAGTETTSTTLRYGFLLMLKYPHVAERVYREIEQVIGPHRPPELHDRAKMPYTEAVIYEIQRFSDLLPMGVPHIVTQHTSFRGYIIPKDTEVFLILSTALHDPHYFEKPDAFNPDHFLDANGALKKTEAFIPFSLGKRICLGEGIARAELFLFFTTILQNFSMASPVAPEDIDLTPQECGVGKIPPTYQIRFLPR

CYP2J2 = target: T4, CYP2J2 (Homo sapiens, UniProt P51589); assay: Vivid CYP450 fluorescence-based inhibition assay, CYP2J2
T4 sequence (P51589 1-502): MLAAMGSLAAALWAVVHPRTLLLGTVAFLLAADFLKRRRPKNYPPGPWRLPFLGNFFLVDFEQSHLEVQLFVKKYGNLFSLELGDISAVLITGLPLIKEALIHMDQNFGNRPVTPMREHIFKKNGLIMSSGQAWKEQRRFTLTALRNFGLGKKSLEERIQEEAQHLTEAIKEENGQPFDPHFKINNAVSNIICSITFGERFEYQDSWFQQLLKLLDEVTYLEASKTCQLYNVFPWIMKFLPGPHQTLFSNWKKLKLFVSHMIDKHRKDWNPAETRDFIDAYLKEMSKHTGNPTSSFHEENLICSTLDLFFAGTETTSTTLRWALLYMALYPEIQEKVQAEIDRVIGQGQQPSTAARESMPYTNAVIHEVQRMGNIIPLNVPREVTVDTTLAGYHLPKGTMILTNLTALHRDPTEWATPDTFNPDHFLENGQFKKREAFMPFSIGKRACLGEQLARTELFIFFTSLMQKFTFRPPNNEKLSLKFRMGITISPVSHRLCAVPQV

CYP2E1 = CYP2E1 (Homo sapiens, UniProt P05181); assay: Vivid CYP450 fluorescence-based inhibition assay, CYP2E1
Sequence of UniProt P05181 (P05181 whole entry): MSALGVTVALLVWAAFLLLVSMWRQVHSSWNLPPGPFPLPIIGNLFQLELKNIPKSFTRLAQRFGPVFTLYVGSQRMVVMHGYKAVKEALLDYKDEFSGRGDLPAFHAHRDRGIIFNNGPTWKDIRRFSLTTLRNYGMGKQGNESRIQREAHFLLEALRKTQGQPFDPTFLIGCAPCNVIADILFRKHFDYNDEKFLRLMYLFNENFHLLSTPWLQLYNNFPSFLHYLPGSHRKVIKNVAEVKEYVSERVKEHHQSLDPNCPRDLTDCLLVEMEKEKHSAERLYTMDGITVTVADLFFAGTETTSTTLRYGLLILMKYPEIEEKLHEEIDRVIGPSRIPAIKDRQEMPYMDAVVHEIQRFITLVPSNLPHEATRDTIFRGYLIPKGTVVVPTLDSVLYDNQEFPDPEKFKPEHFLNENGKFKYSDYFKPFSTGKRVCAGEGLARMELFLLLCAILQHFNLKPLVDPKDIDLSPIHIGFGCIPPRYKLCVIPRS

CYP3A5 = CYP3A5 (Homo sapiens, UniProt P20815); assay: Vivid CYP450 fluorescence-based inhibition assay, CYP3A5; conditions: IC50 shift criterion >2
Sequence of UniProt P20815 (P20815 whole entry): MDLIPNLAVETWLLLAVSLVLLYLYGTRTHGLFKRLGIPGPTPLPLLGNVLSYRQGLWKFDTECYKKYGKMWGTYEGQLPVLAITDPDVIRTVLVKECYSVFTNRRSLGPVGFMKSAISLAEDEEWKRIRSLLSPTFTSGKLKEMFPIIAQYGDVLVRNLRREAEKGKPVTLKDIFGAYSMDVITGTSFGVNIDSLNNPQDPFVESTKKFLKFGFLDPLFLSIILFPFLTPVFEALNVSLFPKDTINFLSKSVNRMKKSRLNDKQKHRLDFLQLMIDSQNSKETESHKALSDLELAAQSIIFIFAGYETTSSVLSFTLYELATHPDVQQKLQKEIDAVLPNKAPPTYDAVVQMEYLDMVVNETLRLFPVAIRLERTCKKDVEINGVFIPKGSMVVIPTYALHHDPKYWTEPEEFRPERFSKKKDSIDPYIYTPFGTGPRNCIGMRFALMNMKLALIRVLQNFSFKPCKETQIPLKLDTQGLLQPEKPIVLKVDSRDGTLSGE

[1] = design: method as in PMID 6111010; conditions: cited from earlier work
CYP2C19 = CYP2C19 (Homo sapiens, UniProt P33261); assay: Vivid CYP450 fluorescence-based inhibition assay, CYP2C19
Sequence of UniProt P33261 (P33261 whole entry): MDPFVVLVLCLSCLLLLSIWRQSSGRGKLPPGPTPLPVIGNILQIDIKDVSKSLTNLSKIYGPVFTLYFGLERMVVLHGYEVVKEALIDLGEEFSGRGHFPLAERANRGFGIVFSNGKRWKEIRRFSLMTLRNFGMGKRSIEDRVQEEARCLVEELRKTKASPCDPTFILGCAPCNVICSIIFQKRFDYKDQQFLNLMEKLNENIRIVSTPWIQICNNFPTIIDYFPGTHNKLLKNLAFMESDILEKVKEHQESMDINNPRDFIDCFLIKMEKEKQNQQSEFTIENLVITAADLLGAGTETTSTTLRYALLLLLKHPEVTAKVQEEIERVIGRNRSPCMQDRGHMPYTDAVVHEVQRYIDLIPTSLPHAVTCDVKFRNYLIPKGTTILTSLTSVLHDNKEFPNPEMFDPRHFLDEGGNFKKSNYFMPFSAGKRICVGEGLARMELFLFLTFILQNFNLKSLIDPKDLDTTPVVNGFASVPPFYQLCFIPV

CYP2A6 = target: T5, CYP2A6 (Homo sapiens, UniProt P11509); assay: Vivid CYP450 fluorescence-based inhibition assay, CYP2A6
T5 sequence (P11509 1-494): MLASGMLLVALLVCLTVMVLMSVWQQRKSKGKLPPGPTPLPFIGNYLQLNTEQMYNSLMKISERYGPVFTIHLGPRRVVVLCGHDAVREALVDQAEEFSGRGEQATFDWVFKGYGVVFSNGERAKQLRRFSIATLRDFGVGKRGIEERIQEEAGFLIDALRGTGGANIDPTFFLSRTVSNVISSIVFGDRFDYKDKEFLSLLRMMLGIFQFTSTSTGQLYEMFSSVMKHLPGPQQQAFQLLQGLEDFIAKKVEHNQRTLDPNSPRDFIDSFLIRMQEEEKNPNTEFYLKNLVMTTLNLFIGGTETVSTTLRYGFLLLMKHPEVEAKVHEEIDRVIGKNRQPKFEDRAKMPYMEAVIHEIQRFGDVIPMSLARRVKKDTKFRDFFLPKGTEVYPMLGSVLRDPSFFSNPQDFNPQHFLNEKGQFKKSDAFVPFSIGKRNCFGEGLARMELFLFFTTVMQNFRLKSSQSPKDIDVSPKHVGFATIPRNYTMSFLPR

Sequence of UniProt P11712 (P11712 whole entry): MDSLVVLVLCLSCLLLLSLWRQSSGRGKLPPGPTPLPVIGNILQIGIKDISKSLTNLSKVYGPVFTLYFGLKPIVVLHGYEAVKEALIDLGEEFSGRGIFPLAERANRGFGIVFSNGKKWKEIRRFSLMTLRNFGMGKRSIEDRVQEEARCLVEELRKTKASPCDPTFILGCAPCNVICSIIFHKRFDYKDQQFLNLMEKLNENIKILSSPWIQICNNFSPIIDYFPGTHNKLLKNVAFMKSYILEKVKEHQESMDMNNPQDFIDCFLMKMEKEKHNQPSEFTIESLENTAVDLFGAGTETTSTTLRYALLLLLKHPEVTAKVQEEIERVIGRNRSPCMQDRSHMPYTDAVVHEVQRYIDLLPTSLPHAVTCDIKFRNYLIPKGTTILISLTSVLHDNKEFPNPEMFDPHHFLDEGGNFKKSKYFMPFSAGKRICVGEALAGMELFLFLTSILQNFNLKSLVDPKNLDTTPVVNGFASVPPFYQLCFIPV

In the case of `C[C@H](N)[C@@H](O)c1ccccc1` [Cathine, (1 S, 2 S)-2-amino-1-phenylpropan-1-ol.hydrochloride], the Ki (CYP3A4) is reported as 100 µM, the “time-dependent (mechanism-based) inhibition, in words” value (CYP3A4; IC50 shift criterion >2) is reported as “no time-dependent (mechanism-based) inhibition” and the mode of inhibition (CYP3A4; Lineweaver-Burk plot) is reported as “non-competitive or mixed mode”. The IC50 (CYP2C9) was > 100 µM, the “time-dependent (mechanism-based) inhibition, in words” value (CYP2C9; IC50 shift criterion >2) was “no time-dependent (mechanism-based) inhibition” and the “time-dependent (mechanism-based) inhibition, in words” value (CYP1A2) was “no time-dependent (mechanism-based) inhibition”. The IC50 (CYP2C8) was > 100 µM, the “time-dependent (mechanism-based) inhibition, in words” value (CYP2C8; IC50 shift criterion >2) was “no time-dependent (mechanism-based) inhibition” and the “time-dependent (mechanism-based) inhibition, in words” value (CYP2D6) was “no time-dependent (mechanism-based) inhibition”. The IC50 (CYP2B6) was > 100 µM, the “time-dependent (mechanism-based) inhibition, in words” value (CYP2B6; IC50 shift criterion >2) was “no time-dependent (mechanism-based) inhibition” and the IC50 (CYP2J2) was > 100 µM. The “time-dependent (mechanism-based) inhibition, in words” value (CYP2J2; IC50 shift criterion >2) was “no time-dependent (mechanism-based) inhibition”, the IC50 (CYP2E1) was > 100 µM and the “time-dependent (mechanism-based) inhibition, in words” value (CYP2E1; IC50 shift criterion >2) was “no time-dependent (mechanism-based) inhibition”. For the same molecule, the “time-dependent (mechanism-based) inhibition, in words” value (CYP3A5) was “no time-dependent (mechanism-based) inhibition”, the “times less potent than cathinone” value [1] was 7-10 times and the IC50 (CYP2C19) was > 100 µM. For the same molecule, the “time-dependent (mechanism-based) inhibition, in words” value (CYP2C19; IC50 shift criterion >2) was “no time-dependent (mechanism-based) inhibition”, the Ki (CYP2A6) was 63 µM and the “time-dependent (mechanism-based) inhibition, in words” value (CYP2A6; IC50 shift criterion >2) was “no time-dependent (mechanism-based) inhibition”. The mode of inhibition (CYP2A6; Lineweaver-Burk plot) was “non-competitive or mixed mode”.
